Experimental findings from article PMC10668032 are described below.

The list shows a part of the results. At the low end of the ranking the order means little.

This test concerns the target SIX1 homeodomain (reference allele) (UniProt Q15475). The test is described as follows: universal protein binding microarray. To be noted: Universal all-10-mer PBM (8x60K, AMADID 030236), 300 nM GST-tagged protein, Alexa Fluor 488 anti-GST; buffer, salt, pH and temperature not stated; high values mean tight binding; most listed sequences are background and not binding sites; double strand, one strand shown.
For CTTATTAC, the binding signal was determined as 0.044 E-score. For GCTCGCAA the value was -0.104 E-score; for CGGCGATA, 0.348 E-score; for GGTGCACC, 0.0775 E-score.

ACTTCTGA: the binding signal is -0.218 E-score. For GTATGAAC, the binding signal amounted to 0.208 E-score. For CCAGGTGC, the binding signal is -0.0328 E-score. As for AGTCATGG, the binding signal is -0.0657 E-score. As for ACACCAGA, the binding signal is 0.27 E-score. For AGCTGAAG, the binding signal is -0.208 E-score. AGATTGCC: the binding signal is -0.216 E-score. Regarding CTACTCCC, the binding signal was 0.173 E-score. For ACCGTAGC the value was -0.112 E-score; for AGTGGTGA, -0.178 E-score. Turning to ACAAGCGA, the binding signal was -0.0406 E-score. As for GGCCGAAC, the figure is -0.197 E-score. For GAGCGGCA the value was -0.204 E-score; for TACACCGA, 0.361 E-score; for AAGGCTGG, -0.323 E-score. Consider CCGAAGTC, for which the binding signal was -0.279 E-score.

Consider CCGCGAGA, for which the binding signal turned out to be 0.104 E-score. As for AGAAGTGC, the figure is -0.113 E-score.

Take AAGGGGCG: the binding signal was -0.0747 E-score.

On to ACCTCGGA, for which the binding signal turned out to be 0.119 E-score. As to ACGGACTC, the binding signal is -0.184 E-score. For GGATGCTA, the binding signal is -0.0387 E-score. On to ACCCATCG, for which the binding signal came out at 0.241 E-score. For the sequence TTATAGAA, the binding signal was -0.0775 E-score. Regarding ATTACAGG, the binding signal is -0.176 E-score. Regarding ACAAGACA, the binding signal was -0.0355 E-score. As to ATTCCCAC, the binding signal was 0.0338 E-score.

As to AGACGGCT, the binding signal worked out at 0.011 E-score. With CAGGTTTA, the binding signal was determined as 0.0814 E-score. For the sequence CGGGTTGA, the binding signal was 0.116 E-score. For CCCTCTGA the value was 0.0996 E-score.

Take AGTTCCAC: the binding signal is -0.0463 E-score. With GCTTAGCA, the binding signal is -0.319 E-score. For GCACAGGA the value was -0.0908 E-score. Take ATCAGGGC: the binding signal is 0.178 E-score.

As for CGTTCCTC, the binding signal was -0.238 E-score. Consider ATGGCGAC, for which the binding signal is -0.201 E-score. With AACCCCGG, the binding signal worked out at 0.0849 E-score. For TCCTCCAA, the binding signal stood at 0.129 E-score. Turning to ACTGCTAA, the binding signal is -0.33 E-score.

On to CAAACTTG, for which the binding signal is -0.105 E-score. TGAGCGCA: the binding signal is -0.18 E-score. CAAATCTA: the binding signal is -0.0634 E-score.

Turning to ACATGTAG, the binding signal turned out to be 0.0948 E-score.

In the case of AGTAGTTA, the binding signal was -0.0767 E-score. As to CTACTTCA, the binding signal is -0.091 E-score. As for CACGGGGA, the figure is 0.168 E-score. For the sequence CGCCTAAA, the binding signal was -0.0284 E-score. As for ATAACTGG, the figure is 0.0297 E-score; as for AACCCCGC, 0.0672 E-score. Take CTTGAGAC: the binding signal is 0.129 E-score. Turning to TCAGCCAA, the binding signal was -0.178 E-score.

Turning to GAGGAGCA, the binding signal is -0.16 E-score.

As to ACACCGTG, the binding signal came out at 0.277 E-score.

For CAAAGGAG, the binding signal is -0.127 E-score. As to TGGAGCAA, the binding signal is -0.19 E-score. For TGTGTTAA the value was -0.183 E-score; for CGCACTAG, -0.154 E-score; for TGTCAGAA, -0.0102 E-score. For the sequence AGGCATTC, the binding signal was -0.0827 E-score.

On to TATGTAAA, for which the binding signal was 0.0129 E-score. Turning to CCCGGCCA, the binding signal is -0.0489 E-score.

In the case of TGAGTACA, the binding signal is -0.0445 E-score. For ACGCGATG, the binding signal came out at 0.121 E-score.

Turning to GAGCTGCA, the binding signal is -0.152 E-score. On to CCCCCCAC, for which the binding signal is -0.0566 E-score. As for AGGGCCCC, the binding signal is -0.171 E-score. Consider AAGTACTT, for which the binding signal is -0.234 E-score.

Regarding TGTGGAAA, the binding signal is -0.156 E-score. As to ACCAGACA, the binding signal is -0.105 E-score.

As to CTTACTGC, the binding signal was -0.0723 E-score. As to CGGAGACG, the binding signal turned out to be 0.216 E-score. For CATTTACG the value was -0.0412 E-score.

Regarding AGGAGCTG, the binding signal was -0.0827 E-score. For CCCGGAGG, the binding signal is -0.0239 E-score.

Turning to CATTCCAA, the binding signal is -0.0612 E-score. For the sequence TAGAAATA, the binding signal is -0.0582 E-score. For AGAGCGGG the value was -0.151 E-score; for ATACGGCG, 0.327 E-score; for ACACTGAA, 0.0565 E-score. ACGGACCA: the binding signal came to 0.0216 E-score. As for CTCTCCAG, the figure is -0.0247 E-score. For GCCAGGTA, the binding signal amounted to 0.0415 E-score. For the sequence GATGGATA, the binding signal came out at 0.377 E-score.

Consider CGCTATAA, for which the binding signal was -0.0427 E-score. Regarding CCTGATAG, the binding signal worked out at 0.266 E-score. For GTTGCCAA, the binding signal is -0.149 E-score. With GGGTCGAA, the binding signal came to 0.115 E-score.

As to CGTAGGGC, the binding signal is -0.0481 E-score.

With ATGCTAAG, the binding signal is -0.108 E-score. In the case of AACGAGTT, the binding signal was -0.17 E-score. Turning to GAAATAGC, the binding signal is -0.107 E-score. As for AAGCGGGA, the figure is -0.0613 E-score. Regarding ACAGGTTG, the binding signal was -0.2 E-score. As for AACCAACG, the binding signal is -0.151 E-score.

Turning to AGGGGCTA, the binding signal turned out to be 0.116 E-score. As for TCGAAGAA, the binding signal is -0.0899 E-score. With GCCTACGA, the binding signal was -0.0359 E-score.

ATACCGGG: the binding signal is 0.399 E-score. Turning to CATTACGA, the binding signal was found to be 0.0639 E-score. On to GAGTTGAC, for which the binding signal was -0.195 E-score. As for CCGCTGCG, the figure is -0.099 E-score; as for CCAAGCCA, -0.0313 E-score; as for CACACTAA, 0.0501 E-score. For CAGGCCAC, the binding signal is -0.311 E-score. For AATACCAG the value was 0.306 E-score; for AACTGATT, -0.138 E-score. As for GGAGGTGA, the figure is 0.0897 E-score. As to GAGGCGTA, the binding signal came to 0.0973 E-score.

Take CCACGCCA: the binding signal is -0.0842 E-score. CCATTACG: the binding signal was -0.0682 E-score. Consider CAACGCTG, for which the binding signal is -0.132 E-score. Take ACTTTGCT: the binding signal was -0.194 E-score.

Consider AAATGAAG, for which the binding signal was -0.0908 E-score. On to AGCACCAG, for which the binding signal is -0.204 E-score. In the case of CCGCGTGA, the binding signal is -0.0349 E-score.

For the sequence ACGGAAAA, the binding signal is -0.267 E-score. Regarding GATGCAGA, the binding signal came out at 0.101 E-score. Turning to CTCCGTGA, the binding signal was determined as 0.0929 E-score. As for CGGTGGGC, the figure is -0.242 E-score; as for AATTCCTG, -0.252 E-score; as for ATCAATTG, 0.147 E-score. Regarding ATCGGATC, the binding signal is 0.426 E-score. As to CGGACTCA, the binding signal was 0.0767 E-score. Regarding CTGGGAGC, the binding signal worked out at 0.0203 E-score. In the case of GTGAGGCA, the binding signal was -0.176 E-score. For GCTCCGGA the value was -0.0286 E-score. Take ACCACGCA: the binding signal is -0.0794 E-score.

In the case of CACTCGAG, the binding signal was -0.0595 E-score.

As to AAAGTGAA, the binding signal was -0.0804 E-score. In the case of AGGTGTCG, the binding signal is 0.399 E-score. In the case of AAAGCGGT, the binding signal was -0.19 E-score. Regarding CCGTAGGC, the binding signal was -0.128 E-score. As to AGGGAGAC, the binding signal amounted to 0.13 E-score. Consider ACCTGGGA, for which the binding signal amounted to 0.0671 E-score. For CTTTGACA the value was -0.142 E-score; for GTGCGTGA, -0.0269 E-score; for AAGTAAAC, -0.198 E-score.

Consider ATTATCAC, for which the binding signal was 0.146 E-score. Regarding GACAAGAA, the binding signal is -0.167 E-score. As for AGTTCTGG, the binding signal is -0.0474 E-score. On to CGAAAGTA, for which the binding signal is -0.253 E-score. Turning to CATCTCGA, the binding signal stood at 0.127 E-score. Turning to CGTGCTGA, the binding signal was -0.0285 E-score. On to AGTCTTGA, for which the binding signal was -0.256 E-score.

Regarding CAAAAACG, the binding signal was -0.12 E-score. ATGTATGG: the binding signal is -0.126 E-score. On to ACGAGATG, for which the binding signal is 0.151 E-score. For GGTAAACA the value was -0.0614 E-score; for AGGGCCTG, -0.315 E-score.

Regarding TCCCATAA, the binding signal is -0.0475 E-score.

Consider CAAGTCGG, for which the binding signal is 0.0151 E-score. For the sequence CCTTAAGG, the binding signal is -0.00564 E-score.

Turning to GACATATA, the binding signal turned out to be 0.226 E-score.

With ACATCGCT, the binding signal was -0.184 E-score.

Consider ACGGCCAT, for which the binding signal was -0.0898 E-score. For CGCTACAG, the binding signal is -0.115 E-score. For CTCCATCA the value was 0.157 E-score; for ACCTGCCC, -0.127 E-score; for CCGACAGA, 0.195 E-score. Take GTAGGTGA: the binding signal was -0.0489 E-score. Take GCTTTTCC: the binding signal was -0.237 E-score. CGTATAGA: the binding signal is 0.28 E-score. As for CATCGCTA, the binding signal is -0.0699 E-score. As to ATTAGGAC, the binding signal was -0.00345 E-score. As to AGGAATAA, the binding signal was 0.00961 E-score. As to ACACTCCT, the binding signal was -0.00542 E-score. Take GTAGTGCA: the binding signal came out at 0.00679 E-score.
